Among all 48,000 compounds or so, about 450 (0.94%) were called active. Roughly 19% stayed inconclusive and do not appear here. Calls come from the whole dose curve; as a rule, active = well fitted inhibition curve with a large enough effect; inconclusive = small, poorly fitted or top-dose-only effect; inactive = no such curve, though single readings can be large or run the other way. The list shows a part of the results.
test: Primary qHTS for Identification of Small Molecule Inhibitors of Huntingtin Promoter Activity; conditions: HEK293 HTT promoter firefly luciferase reporter (activity 0% = vehicle and -100% = no light), 24 h; series mostly up to 57.5 µM; activity change, negative = inhibition: at the top concentration; note: nearly all actives have a fitted effect of over 50% in size
Outline: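 HEK293 cells carrying firefly luciferase reporters were seeded at 2,500 per well in Opti-MEM and cultured for 24 h. They were then treated with compounds at up to 57.5 uM final for 24 h at 37 degrees C before Dual-Glo luminescence readout.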

Activity change, negative = inhibition, inactive:
CCC1CCCCN1C(=O)c1sc(-n2nc(C)c(Cc3ccccc3)c2C)nc1C (configuration not stated) 20.9%
COc1cccc(OC(=O)CSc2nnc(-c3ccc4c(c3)OCO4)o2)c1 -13.4%
CCOC(=O)c1c(S(=O)(=O)NCC(=O)NCc2ccccc2)c(C)n(C)c1C 1.77%
Cc1cccc(-c2nc3c4ccccc4nc(NCc4ccc(F)cc4)n3n2)c1 37.1%
CCOC(=O)c1ccc(OC(=O)c2cn(-c3cccc(OC)c3)c(=O)c3ccccc23)cc1 -11.1%
CCc1ccc2c(c1)NC(c1ccc(OC)cc1)=NC(c1ccncc1)=N2 -18.8%
CCOc1ccccc1NC(=O)C(C)N(c1ccccc1)S(C)(=O)=O (configuration not stated) -6.41%
COc1cc(/C=C/c2nc(C#N)c(N3CCC(C)CC3)o2)cc(OC)c1OC -26.3%
COc1ccccc1OCC(=O)Nc1c(C(=O)c2ccc(F)cc2)oc2ccccc12 -9.36%
O=C(c1ccccc1)c1ccccc1 14.9%
Cc1ccc2c(c1)N(CCCC(=O)NCc1cccc(F)c1)C(=O)CO2 -2.45%
Cc1ncc(CO)c(CN)c1O -2.86%
COc1ccc(NC(=O)C(NC(=O)/C=C\c2ccc3c(c2)OCO3)c2ccccc2)cc1 (configuration not stated) -11.2%
CCCN(CCC)CCCNC(=O)c1cc2c(=O)[nH]c3ccccc3c2n1C -6%
COc1cccc(-n2c(=O)c3sc4ccccc4c3n(CC(=O)Nc3ccccc3C)c2=O)c1 -12.8%
O=C(CSc1c2c(nc3cc(Cl)ccc13)CCCC2)NCc1ccccc1Cl -32.2%
COc1ccc(C2CC(=O)c3cc(-c4nc(-c5cccc([N+](=O)[O-])c5)cs4)c(=O)n(-c4ccc(OC)cc4)c3C2)cc1 (configuration not stated) -2.94%
COc1ccc(C2N3CC4(C)CN2CC(c2ccccc2)(C3)C4=O)cc1OC (configuration not stated) -11.1%
Cc1c(C(=O)Nc2ccc(F)cc2F)sc2nc3n(c(=O)c12)N=C(c1ccccc1)CS3 -24.1%
Cn1nccc1C(=O)NCc1ccc2c(c1)CCN2C(=O)c1ccc(Cl)cc1 -18.8%
CC(Sc1oc(-c2cccs2)nc1S(=O)(=O)c1ccccc1)c1ccccc1 (configuration not stated) -22.2%
COc1ccc(C(CNC(=O)COc2cc(C)cc(C)c2)N2CCOCC2)cc1 (configuration not stated) -3.31%
CCc1ccc(NC(=O)c2nn(-c3ccc(OC)cc3)c(=O)c3c2c2ccccc2n3C)cc1 -26.6%
COc1ccc(N2CCN(c3csc4ccccc4c3=O)CC2)cc1 4.61%
CCc1ccc(Oc2c(C(F)(F)F)oc3c(CN4CCCC(C)C4)c(O)ccc3c2=O)cc1 (configuration not stated) -13.4%
CC(CNC(=O)CCS(=O)(=O)c1cc2c(cc1Cl)NC(=O)CO2)c1ccccc1 (configuration not stated) 11.1%
CCOC(=O)c1ccccc1NC(=O)CCc1nc(-c2ccc(C)cc2)no1 -5.58%

From PubChem BioAssay AID1508623 (National Center for Advancing Translational Sciences (NCATS), 2021)
